Experimental data from PubChem BioAssay AID686978 (National Center for Advancing Translational Sciences (NCATS), 2013).
Values joined by “and” are separate entries in the source; they are usually repeats but may differ in a detail not shown here. Equal entries are not always repeated. The whole screen tested about 420,000 compounds, of which about 64,000 (15%) were called active. The shares of active, inactive and inconclusive entries below differ from those in the screen. The call rests on the fitted dose curve; in most records, active means well fitted inhibition curve with a large enough effect; inconclusive means small, poorly fitted or top-dose-only effect; inactive means flat fitted curve, though single readings scatter. Where the call is inconclusive, the potency comes from a doubtful curve fit.

Assay: qHTS for Inhibitors of human tyrosyl-DNA phosphodiesterase 1 (TDP1): qHTS in cells in absence of CPT; further: nearly all actives have a fitted effect of over 55% in size
Settings: DT40 Tdp1-/- hTDP1 cells, no CPT, ATP luminescence, 48 h; activity change, negative = growth inhibition: at 46.2 µM (top of the series) unless noted
Outline: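 No-CPT arm: Tdp1-/-;hTDP1 DT40 cells (400/well) plus compounds, incubated ≥48 hr at 37 °C. Readout CellTiter-Glo luminescence.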
On the % scale 0 is the no-effect control and ±100 the full control effect; potency means the concentration at half of the fitted maximal effect; tags describe the fitted curve by direction and shape.

SMILES | activity change, negative = growth inhibition | Potency
O=C(CSc1nc(=O)[nH]c2c1CCCC2)NCc1ccccc1Cl | inactive: 7.76% | –
CCOc1cc(C=NNC(=O)c2cccc(S(=O)(=O)N3CCCC3)c2)ccc1O | – | inconclusive: 29.1 µM [inhibitor, single point]
CCCCCC(=O)Nc1cccc(C2=NOC3(C2)C[C@@H](C(N)=O)N(C(=O)Cc2ccc([N+](=O)[O-])cc2)C3)c1 (stereo partly specified) | – | inconclusive: 20.6 µM [inhibitor, single point]
O=C(CSc1nnc(NC(=O)c2ccccc2F)s1)NC1CC1 | inactive: 12.4% | –
O=C(O)c1ccc(-n2ncc3c2/C(=C/c2cccc([N+](=O)[O-])c2)CC3)cc1 | – | inconclusive: 3.26 µM [inhibitor, partial curve]
Cc1ccc(CN(c2ccc(C(=O)NCc3ccc4c(c3)OCO4)cc2)S(C)(=O)=O)cc1 | – | inconclusive: 32.6 µM [inhibitor, partial curve, poor fit]
CCCCNC(=O)CN1C(=O)c2cccnc2Sc2ccccc21 | – | inconclusive: 29.1 µM [inhibitor, single point]
Cc1cc(C)c(S(=O)(=O)NCC2CCC(C(=O)NCCCN3CCC(C)CC3)CC2)c(C)c1 (stereo unspecified) | – | inconclusive: 16.4 µM [inhibitor, single point]
COc1cccc2c1C(CCCC(=O)O)CCC2 (stereo unspecified) | – | inconclusive: 8.2 µM [inhibitor, partial curve]
CCOc1ccccc1NC(=O)CCCc1nc(-c2ccccc2Cl)no1 | – | inconclusive: 18.4 µM [inhibitor, single point]
CC(C(=O)Nc1ccc2c(c1)OCO2)N(C)CC(=O)Nc1ccccc1Cl (stereo unspecified) | – | inconclusive: 29.1 µM [inhibitor, single point]
CCCCc1ccc(NC(=S)NCC2CCCO2)cc1 (stereo unspecified) | – | inconclusive: 29.1 µM [inhibitor, single point]
CC(C)(C)C(=O)N1CCc2cc(-c3csc(N)n3)ccc21 | – | inconclusive: 29.1 µM [inhibitor, partial curve, poor fit]
COc1ccc(CNC(=O)CCS(=O)(=O)c2cc(Br)cc3c2N(C(C)=O)C(C)C3)cc1 (stereo unspecified) | – | inconclusive: 10.3 µM [inhibitor, partial curve]
CC1CCCCC12NC(=O)N(CC(=O)Nc1ccc(N3CCCCC3)cc1)C2=O (stereo unspecified) | – | inconclusive: 14.6 µM [inhibitor, partial curve, poor fit]
CCCN(CCC)S(=O)(=O)c1cccc(-c2csc(C)n2)c1 | – | active: 18.4 µM
COc1ccc(N2CCN(c3ccc(-c4nc(-c5ccccc5)no4)cc3[N+](=O)[O-])CC2)cc1 | – | inconclusive: 2.59 µM [inhibitor, full curve, poor fit]
Cc1ccc(N(Cc2cccs2)C(=O)C(C)Oc2ccc(Cl)c(C)c2)cc1 (stereo unspecified) | – | active: 9.2 µM
COC(=O)CCC(=O)NC(=S)Nc1c(C)cccc1C | – | inconclusive: 29.1 µM [inhibitor, single point]
O=C(Nc1cccc(Cl)c1Cl)c1ccc2c(c1)N(Cc1cccc(Cl)c1)C(=O)c1ccccc1S2=O (stereo unspecified) | inactive: 2.08% | –
Clc1ccc(/C=N/N2CCN(Cc3ccccc3)CC2)cc1 | inactive: -3.32% | –
CCOc1ccc(Oc2ccccc2NC(=O)CSCC(=O)Nc2cc(C)on2)cc1 | – | active: 13 µM

SMILES | activity change, negative = growth inhibition | Potency
Cc1nn(-c2ccccc2)c(Cl)c1/C=N/NC(=O)c1ccccc1F | – | inconclusive: 29.1 µM [inhibitor, single point]
CCc1cccc(NC(=O)CSc2nncn3c2cc2sccc23)c1 | – | inconclusive: 29.1 µM [inhibitor, single point]
Cc1cccc(C)c1NC(=O)C(c1ccccc1OC(F)(F)F)N1CCC(c2ccccc2)CC1 (stereo unspecified) | – | active: 16.4 µM
O=C(O)CCN1C(=O)/C(=C\c2cccc(OCC(=O)Nc3ccc(Cl)cc3)c2)SC1=S | – | inconclusive: 16.4 µM [inhibitor, single point]
CCOC(=O)N1CCN(c2nc(-c3ccccc3)c3cc(C)ccc3n2)CC1 | – | inconclusive: 29.1 µM [inhibitor, single point]
Cn1nc(C(C)(C)C)cc1N1C(=O)CCC1(C)C(=O)NCc1ccccc1 (stereo unspecified) | inactive: 3.77% | –
Cc1cc(C)c2nccc(/C=C/c3ccc(N(C)C)cc3)c2c1 | – | active: 10 µM
Cc1ccc(Cn2c(C)nc3c(c2=O)c2nc4ccccc4nc2n3Cc2ccco2)cc1 | – | active: 23.1 µM
CCOC(=O)c1cccc(NC(=O)c2cccs2)c1 | – | active: 14.6 µM
O=C(NCc1cccc(F)c1)c1ccc2nc(N3CCOCC3)sc2c1 | inactive: -25.7% | –
Cc1c(C(=O)O)c(O)cc2c1C(=O)c1c(O)c([C@@H]3O[C@H](CO)[C@@H](O)[C@H](O)[C@H]3O)c(O)c(O)c1C2=O | – | inconclusive: 33.5 µM [inhibitor, single point] and inconclusive: 20.6 µM [inhibitor, single point]
Cc1cccc(C)c1NC(=O)COc1ccccc1C(=O)Nc1ccc(Br)cn1 | – | inconclusive: 25.9 µM [inhibitor, single point]
COc1c(-c2ccccc2)oc2c(ccc3occc32)c1=O | – | inactive and inconclusive: 32.6 µM [inhibitor, single point]
O=C(CCc1nnc2n(CCc3ccccc3)c(=O)c3ccccc3n12)NCCCN1CCCCC1 | – | inconclusive: 23.1 µM [inhibitor, single point]
Cc1ccc(CN2[C@@H](CC3CCCCC3)COCCS2(=O)=O)cc1 | – | active: 12.6 µM
COc1ccc(OC)c(NC(=O)C(C)OC(=O)c2cc3ccccc3[nH]2)c1 (stereo unspecified) | – | inconclusive: 23.1 µM [inhibitor, single point]
COc1ccc(S(=O)(=O)NCCSc2nnnn2-c2ccccc2)cc1OC | – | active: 23.1 µM
O=C(c1ccc(NS(=O)(=O)c2ccc(F)cc2)cc1)N1CCCCC1 | – | inconclusive: 32.6 µM [inhibitor, single point]
Cc1ccc(C(=O)Cn2c(C(=O)OCCO)cc3ccccc32)cc1 | – | inconclusive: 13 µM [inhibitor, single point]
CCN(Cc1ccccc1)C(=O)c1cc(-c2ccccc2)n[nH]1 | – | inconclusive: 29.1 µM [inhibitor, single point]
O=C(c1ccc2c(=O)n(-c3ccccc3)c(=S)[nH]c2c1)N1CCN(c2ccccc2)CC1 | – | active: 11.6 µM
Cc1ccccc1Nc1c(-c2cccc(Cl)c2)nc2ncccn12 | – | inconclusive: 29.1 µM [inhibitor, single point]

SMILES | activity change, negative = growth inhibition | Potency
COc1ccc2c(c1)c(C(=O)CNc1nc(C)cs1)c(C)n2C | – | active: 20.6 µM
COc1ccc(N2CCN(C(=O)C(OC(C)=O)c3ccccc3)CC2)cc1 (stereo unspecified) | – | inconclusive: 20.6 µM [inhibitor, partial curve]
COc1ccc(NC(=O)CSc2ncc(-c3ccc(F)cc3)n2Cc2ccco2)cc1 | – | active: 15.8 µM
CC(=O)CCSc1ncnc2sc(-c3ccccc3)cc12 | – | inconclusive: 29.1 µM [inhibitor, single point]
CCOC(=O)c1c(C)n(C)c2ccc(OCC(O)CN3CCCCCC3)cc12 (stereo unspecified) | – | inconclusive: 20.6 µM [inhibitor, partial curve, poor fit]
Cc1ccc(NC(=O)N2CCCC2C(=O)NCC2CCCCC2)cc1 (stereo unspecified) | – | inconclusive: 29.1 µM [inhibitor, single point]
CCN(CC)S(=O)(=O)c1ccc2c(c1)N(CC(=O)N1CCN(c3ccc(OC)cc3)CC1)C(=O)CO2 | – | inconclusive: 25.9 µM [inhibitor, single point]
CC(=O)c1ccc(-c2nc3c4ccccc4ccn3c2C(C)=O)o1 | inactive: -9.31% | –
CC(C)(C)c1nnc2sc(SCC(=O)N3CCc4ccccc43)nn2c1=O | – | inconclusive: 29.1 µM [inhibitor, single point]
Cc1ccc(S(=O)(=O)N2C[C@@H](C)[C@]3(C2)[C@H](O)[C@H](OC(=O)NCc2ccccc2F)C[C@H]2C(=O)N(c4ccccc4)C(=O)[C@H]23)cc1 | – | inconclusive: 18.4 µM [inhibitor, single point]
Cc1oc2ccc(O)c(CN3CCOCC3)c2c1C(=O)Nc1cccc(C(F)(F)F)c1 | – | inconclusive: 29.1 µM [inhibitor, single point]
Cc1nc2c(c(=O)n1CCC1=CCCCC1)c1nc3ccccc3nc1n2/N=C/c1ccccc1 | – | inconclusive: 23.1 µM [inhibitor, single point]
O=C(Nc1ccc2ccccc2c1)C(C1CC1)n1c(=O)c(-c2cc3ccccc3[nH]2)nc2ccccc21 (stereo unspecified) | – | inconclusive: 20.6 µM [inhibitor, single point]
C=CCNC(=O)c1ccc(CSc2nc3ccccc3s2)cc1 | – | inconclusive: 16.4 µM [inhibitor, single point]
COC(=O)c1sccc1NC(=O)/C=C/c1ccc(Cl)cc1 | – | inconclusive: 16.4 µM [inhibitor, single point]
CN(Cc1ccccc1)C(=O)COC(=O)CCNC(=O)c1ccccc1Cl | inactive: 2.87% | –
O=C(c1cc([N+](=O)[O-])ccc1Cl)N1CCc2ccccc21 | inactive: -27.6% | –
Cc1oc(-c2ccccc2F)nc1CS(=O)(=O)CC(=O)N1CCN(Cc2ccccc2)CC1 | – | inconclusive: 29.1 µM [inhibitor, single point]
COc1ccccc1-c1ccc(C(=O)O)o1 | inactive: -15.4% | –
CCOC(=O)C1CCN(C(=O)Cn2cnc3sc(C)c(S(=O)(=O)N4CCC(C)CC4)c3c2=O)CC1 | inactive: -19.8% | –
Cc1ccccc1CNc1nc(N(C)C)nc2c1cnn2C | – | inconclusive: 29.1 µM [inhibitor, single point]
c1coc(CNc2ncnc3sc4c(c23)CCCCC4)c1 | inconclusive: -37% [inhibitor] | –
